The values below come from patent US20030224453A1, “Structural models for cytoplasmic domains of transmembrane receptors” (priority 1998, published 2003).

By UniProt entry, the sequences of proteins in these tests, tags left out. Residues count along the entry.
UniProt P21333, residues 2-2647: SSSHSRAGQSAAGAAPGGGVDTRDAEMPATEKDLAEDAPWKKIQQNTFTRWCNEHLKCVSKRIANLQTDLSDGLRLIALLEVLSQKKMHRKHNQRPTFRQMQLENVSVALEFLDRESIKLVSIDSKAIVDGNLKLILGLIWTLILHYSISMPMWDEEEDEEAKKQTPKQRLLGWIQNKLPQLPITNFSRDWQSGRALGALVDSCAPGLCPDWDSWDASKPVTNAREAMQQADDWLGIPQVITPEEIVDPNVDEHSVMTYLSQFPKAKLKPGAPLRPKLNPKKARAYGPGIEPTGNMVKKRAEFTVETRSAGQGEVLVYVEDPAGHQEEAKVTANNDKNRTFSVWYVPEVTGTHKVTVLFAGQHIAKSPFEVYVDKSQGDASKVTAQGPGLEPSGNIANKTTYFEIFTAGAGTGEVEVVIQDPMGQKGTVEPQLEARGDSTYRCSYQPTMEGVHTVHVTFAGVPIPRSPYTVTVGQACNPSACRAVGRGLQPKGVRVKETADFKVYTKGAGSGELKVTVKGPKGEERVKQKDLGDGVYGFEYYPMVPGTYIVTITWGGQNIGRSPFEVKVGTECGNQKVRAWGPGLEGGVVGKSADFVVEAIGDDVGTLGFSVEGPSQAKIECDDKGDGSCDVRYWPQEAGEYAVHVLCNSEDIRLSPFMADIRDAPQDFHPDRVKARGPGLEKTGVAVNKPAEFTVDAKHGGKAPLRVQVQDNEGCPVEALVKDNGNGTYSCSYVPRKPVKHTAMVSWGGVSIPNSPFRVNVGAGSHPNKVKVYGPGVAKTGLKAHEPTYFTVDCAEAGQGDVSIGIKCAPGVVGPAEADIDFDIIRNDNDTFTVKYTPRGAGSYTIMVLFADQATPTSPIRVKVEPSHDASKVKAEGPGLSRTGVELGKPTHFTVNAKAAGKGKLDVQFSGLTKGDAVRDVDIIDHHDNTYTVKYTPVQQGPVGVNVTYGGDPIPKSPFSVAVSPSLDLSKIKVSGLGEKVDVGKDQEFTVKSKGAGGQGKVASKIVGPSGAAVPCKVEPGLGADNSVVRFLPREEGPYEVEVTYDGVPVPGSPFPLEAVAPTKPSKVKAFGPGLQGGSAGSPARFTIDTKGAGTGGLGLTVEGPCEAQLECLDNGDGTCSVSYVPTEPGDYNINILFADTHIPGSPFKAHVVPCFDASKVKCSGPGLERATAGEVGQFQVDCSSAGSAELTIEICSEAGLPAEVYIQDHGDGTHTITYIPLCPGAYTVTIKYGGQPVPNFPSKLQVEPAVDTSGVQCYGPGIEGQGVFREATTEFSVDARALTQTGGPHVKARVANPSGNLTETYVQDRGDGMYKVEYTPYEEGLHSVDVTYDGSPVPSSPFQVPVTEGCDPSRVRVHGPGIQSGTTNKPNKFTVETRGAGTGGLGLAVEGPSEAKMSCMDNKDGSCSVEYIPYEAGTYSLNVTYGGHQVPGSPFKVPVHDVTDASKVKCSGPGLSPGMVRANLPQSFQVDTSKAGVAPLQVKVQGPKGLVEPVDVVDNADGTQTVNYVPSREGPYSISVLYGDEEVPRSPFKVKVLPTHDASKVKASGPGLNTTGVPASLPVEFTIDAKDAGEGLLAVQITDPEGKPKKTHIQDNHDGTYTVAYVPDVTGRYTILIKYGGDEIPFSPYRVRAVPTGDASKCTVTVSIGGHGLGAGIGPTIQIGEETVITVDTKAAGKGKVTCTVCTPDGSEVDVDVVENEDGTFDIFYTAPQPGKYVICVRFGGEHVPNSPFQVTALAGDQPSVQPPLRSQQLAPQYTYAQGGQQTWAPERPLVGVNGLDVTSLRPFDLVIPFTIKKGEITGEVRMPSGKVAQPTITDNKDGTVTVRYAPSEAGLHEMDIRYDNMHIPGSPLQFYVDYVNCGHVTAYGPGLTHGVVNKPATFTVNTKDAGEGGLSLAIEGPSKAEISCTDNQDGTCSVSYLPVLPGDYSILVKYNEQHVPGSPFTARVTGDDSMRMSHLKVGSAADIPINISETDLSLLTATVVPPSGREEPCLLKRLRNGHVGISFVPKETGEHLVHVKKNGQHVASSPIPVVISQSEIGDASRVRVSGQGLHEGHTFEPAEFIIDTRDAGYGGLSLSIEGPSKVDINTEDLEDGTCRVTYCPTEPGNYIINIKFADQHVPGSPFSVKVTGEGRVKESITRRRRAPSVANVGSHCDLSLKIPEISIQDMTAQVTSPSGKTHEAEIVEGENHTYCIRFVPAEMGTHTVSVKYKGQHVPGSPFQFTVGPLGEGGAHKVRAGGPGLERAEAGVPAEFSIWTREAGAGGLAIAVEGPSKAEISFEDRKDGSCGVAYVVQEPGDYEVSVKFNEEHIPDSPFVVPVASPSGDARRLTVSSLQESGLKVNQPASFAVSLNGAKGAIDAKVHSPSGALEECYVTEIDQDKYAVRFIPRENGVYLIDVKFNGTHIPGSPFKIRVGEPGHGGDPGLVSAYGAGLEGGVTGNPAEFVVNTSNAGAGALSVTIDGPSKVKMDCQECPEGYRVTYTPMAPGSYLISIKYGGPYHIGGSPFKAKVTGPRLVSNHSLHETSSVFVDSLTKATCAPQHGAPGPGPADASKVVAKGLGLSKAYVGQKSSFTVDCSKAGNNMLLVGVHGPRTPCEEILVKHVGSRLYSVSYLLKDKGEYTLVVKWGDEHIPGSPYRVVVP
UniProt Q9Y490: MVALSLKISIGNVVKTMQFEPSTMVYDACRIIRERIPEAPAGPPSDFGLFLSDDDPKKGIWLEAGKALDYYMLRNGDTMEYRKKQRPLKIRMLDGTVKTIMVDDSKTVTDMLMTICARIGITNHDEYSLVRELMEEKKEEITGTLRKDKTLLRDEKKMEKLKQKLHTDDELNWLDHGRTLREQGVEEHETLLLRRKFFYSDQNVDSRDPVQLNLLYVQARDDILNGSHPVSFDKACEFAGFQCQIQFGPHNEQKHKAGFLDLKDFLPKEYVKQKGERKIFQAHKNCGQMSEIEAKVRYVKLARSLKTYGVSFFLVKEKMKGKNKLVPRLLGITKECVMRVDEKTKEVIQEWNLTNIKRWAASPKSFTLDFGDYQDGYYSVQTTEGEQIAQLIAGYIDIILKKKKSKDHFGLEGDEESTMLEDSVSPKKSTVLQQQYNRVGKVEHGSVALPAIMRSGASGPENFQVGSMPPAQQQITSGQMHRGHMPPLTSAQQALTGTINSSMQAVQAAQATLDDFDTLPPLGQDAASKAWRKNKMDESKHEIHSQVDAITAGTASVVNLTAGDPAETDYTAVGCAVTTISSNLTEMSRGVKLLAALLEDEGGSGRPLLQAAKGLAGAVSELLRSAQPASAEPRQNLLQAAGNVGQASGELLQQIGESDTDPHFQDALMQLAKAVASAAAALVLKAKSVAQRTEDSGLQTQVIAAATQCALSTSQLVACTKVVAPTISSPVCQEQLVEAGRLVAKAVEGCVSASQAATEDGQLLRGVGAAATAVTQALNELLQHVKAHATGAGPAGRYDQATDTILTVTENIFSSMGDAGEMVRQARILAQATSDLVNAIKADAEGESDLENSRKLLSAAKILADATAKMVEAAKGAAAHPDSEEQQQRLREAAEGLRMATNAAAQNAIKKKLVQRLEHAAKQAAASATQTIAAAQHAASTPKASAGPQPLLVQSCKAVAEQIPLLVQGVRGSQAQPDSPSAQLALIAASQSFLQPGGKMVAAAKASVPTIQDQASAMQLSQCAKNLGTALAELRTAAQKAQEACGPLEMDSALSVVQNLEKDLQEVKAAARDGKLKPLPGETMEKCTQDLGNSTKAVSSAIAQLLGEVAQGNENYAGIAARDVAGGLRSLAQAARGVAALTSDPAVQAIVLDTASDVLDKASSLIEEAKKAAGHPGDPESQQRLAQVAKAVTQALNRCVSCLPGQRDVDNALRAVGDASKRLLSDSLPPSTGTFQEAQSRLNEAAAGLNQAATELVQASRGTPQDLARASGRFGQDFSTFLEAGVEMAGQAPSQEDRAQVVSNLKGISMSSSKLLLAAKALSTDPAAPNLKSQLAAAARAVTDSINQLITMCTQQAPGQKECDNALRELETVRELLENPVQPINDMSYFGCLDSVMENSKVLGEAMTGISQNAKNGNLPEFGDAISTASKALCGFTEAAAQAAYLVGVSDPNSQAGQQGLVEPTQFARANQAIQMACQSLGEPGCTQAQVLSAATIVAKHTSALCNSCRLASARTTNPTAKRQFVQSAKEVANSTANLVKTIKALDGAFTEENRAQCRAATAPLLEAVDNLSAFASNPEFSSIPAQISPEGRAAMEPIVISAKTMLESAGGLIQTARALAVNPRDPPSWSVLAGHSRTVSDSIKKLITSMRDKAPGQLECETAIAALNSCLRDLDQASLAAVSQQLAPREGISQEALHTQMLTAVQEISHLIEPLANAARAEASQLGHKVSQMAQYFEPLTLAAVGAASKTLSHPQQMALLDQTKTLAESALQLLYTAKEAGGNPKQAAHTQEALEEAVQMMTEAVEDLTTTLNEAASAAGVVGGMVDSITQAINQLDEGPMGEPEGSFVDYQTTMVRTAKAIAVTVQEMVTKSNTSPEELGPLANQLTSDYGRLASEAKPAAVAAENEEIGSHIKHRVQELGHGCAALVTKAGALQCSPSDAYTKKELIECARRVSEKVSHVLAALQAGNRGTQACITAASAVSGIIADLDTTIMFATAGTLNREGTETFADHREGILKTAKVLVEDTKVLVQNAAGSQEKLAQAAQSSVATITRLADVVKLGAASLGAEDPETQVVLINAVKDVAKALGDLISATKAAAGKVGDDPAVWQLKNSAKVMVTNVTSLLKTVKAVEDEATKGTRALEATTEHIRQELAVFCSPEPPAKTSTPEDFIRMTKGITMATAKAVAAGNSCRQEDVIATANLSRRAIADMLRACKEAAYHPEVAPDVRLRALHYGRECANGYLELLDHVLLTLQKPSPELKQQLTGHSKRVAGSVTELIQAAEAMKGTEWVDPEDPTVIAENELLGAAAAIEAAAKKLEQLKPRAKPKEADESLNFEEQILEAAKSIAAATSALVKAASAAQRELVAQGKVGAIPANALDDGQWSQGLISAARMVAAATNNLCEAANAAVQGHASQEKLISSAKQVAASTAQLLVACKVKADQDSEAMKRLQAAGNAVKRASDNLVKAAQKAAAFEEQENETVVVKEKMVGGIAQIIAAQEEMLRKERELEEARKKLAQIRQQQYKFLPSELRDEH

Experiment [1] addresses T1, filamin (ABP-280) (Homo sapiens, UniProt P21333). The experiment can be described thus: affinity chromatography: model protein on Ni2+ resin, biotinylated human platelet lysate, blot.
Experiment [2] addresses T1, filamin (ABP-280). As to the kind of experiment: purified human uterus filamin on model protein resin, Coomassie gel.
For experiment [3], the target named is T1, filamin (ABP-280). As to the kind of experiment: affinity chromatography: model protein on Ni2+ resin; lysates of human platelets, Jurkat and HT1080 cells.
Experiment [4] deals with T2, talin (Homo sapiens, UniProt Q9Y490). The experiment can be described thus: purified human platelet talin on model protein resin, Coomassie gel.
Experiment [5] deals with T2, talin. The experiment can be described thus: affinity chromatography: model protein on Ni2+ resin, biotinylated human platelet lysate, blot.
Experiment [6] addresses T2, talin. As to the kind of experiment: affinity chromatography: model protein on Ni2+ resin, biotinylated human platelet lysate.
The target of experiment [7] is T1, filamin (ABP-280). Described as above.
For experiment [8], the target named is T2, talin. The experiment can be described thus: affinity chromatography: model protein on Ni2+ resin; lysates of human platelets, Jurkat and HT1080 cells.

No constants are given. Whether binding was seen depends on the method and setting. Some binding calls cover weakened binding; strength is not graded here.

B1: G3-β1A cytoplasmic domain model protein (designed binder)
chain: GSSHHHHHHSSGLVPRGSHMKLEALEGRLDALEGKLEALEGKLDALEGGGKLLMIIHDRREFAKFEKEKMNAKWDTGENPIYKSAVTTVVNPKYEGK
B1: the binding entry in experiment [1] was “binds”.

B2: G1-β7 cytoplasmic domain model protein (designed binder)
chain: GSSHHHHHHSSGLVPRGSHMKLEALEGRLDALEGKLEALEGKLDALEGKLSVEIYDRREYSRFEKEQQQLNWKQDSNPLYKSAITTTINPRFQEADSPTL
As for B2, the binding entry in experiment [2] and in experiment [3] was “binds” throughout.

B3: G4-β1A cytoplasmic domain model protein (designed binder)
chain: GSSHHHHHHSSGLVPRGSHMKLEALEGRLDALEGKLEALEGKLDALEGGGGKLLMIIHDRREFAKFEKEKMNAKWDTGENPIYKSAVTTVVNPKYEGK
As to B3, the binding result in experiment [2], in experiment [4], in experiment [5] and in experiment [1] was “binds” in each case.

B4: G4-β1A-Y788A cytoplasmic domain model protein (designed binder)
chain: GSSHHHHHHSSGLVPRGSHMKLEALEGRLDALEGKLEALEGKLDALEGGGGKLLMIIHDRREFAKFEKEKMNAKWDTGENPIAKSAVTTVVNPKYEGK
Regarding B4, the binding result in experiment [6] and in experiment [7] was “no binding” each time.

B5: G1-β1D cytoplasmic domain model protein (designed binder)
chain: GSSHHHHHHSSGLVPRGSHMKLEALEGRLDALEGKLEALEGKLDALEGKLLMIIHDRREFAKFEKEKMNAKWDTQENPIYKSPINNFKNPNYGRKAGL
With B5, the binding result in experiment [2], in experiment [4] and in experiment [8] was “binds” each time.

B6: G4-β1D cytoplasmic domain model protein (designed binder)
chain: GSSHHHHHHSSGLVPRGSHMKLEALEGRLDALEGKLEALEGKLDALEGGGGKLLMIIHDRREFAKFEKEKMNAKWDTQENPIYKSPINNFKNPNYGRKAGL
Take B6: the binding entry in experiment [2], in experiment [4] and in experiment [8] was “binds” each time.

B7: G4-β7 cytoplasmic domain model protein (designed binder)
chain: GSSHHHHHHSSGLVPRGSHMKLEALEGRLDALEGKLEALEGKLDALEGGGGKLSVEIYDRREYSRFEKEQQQLNWKQDSNPLYKSAITTTINPRFQEADSPTL
Consider B7, for which the binding result in experiment [2] and in experiment [3] was “binds” throughout.

B8: G2-β1A cytoplasmic domain model protein (designed binder)
chain: GSSHHHHHHSSGLVPRGSHMKLEALEGRLDALEGKLEALEGKLDALEGGKLLMIIHDRREFAKFEKEKMNAKWDTGENPIYKSAVTTVVNPKYEGK
Turning to B8, the binding entry in experiment [1] was “binds”.
